Laboratory results taken from the supplement of paper PMC3334620.
In all, about 33,000 sequences were measured (“E-score (-0.5 to 0.5)”: median about -0.056, highest 2% from about 0.38 on). The list shows a part of the results.

Target: Stb4 (UniProt P50104)
Assay: PBM E-score (8-mer binding enrichment) (E-score (-0.5 to 0.5)); higher = stronger / more preferred TF binding; most listed sequences are background and not binding sites
Conditions: protein concentration: 200 nM; construct: GST-DNA-binding domain
Outline: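 For each ungapped eight-base word taken together with its reverse complement, the Universal PBM Analysis Suite assigned an E-score. Binding data came from GST-tagged yeast transcription factors, applied at about 100-200 nM, on universal all-10-mer Agilent arrays made double-stranded by primer extension. Fluorescent anti-GST marked bound protein, and scans were normalised with masliner.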

Row | Sequence | PBM E-score
1 | TACTCGCA | -0.0584
2 | GTTACGGA | 0.177
3 | TCGATCCA | -0.0806
4 | ATGCGCGA | 0.106
5 | ACTGGAGA | -0.129
6 | ATCACAAG | -0.173
7 | ATCAGCAA | -0.0425
8 | AAAGACCC | 0.202
9 | ATGCTTGA | -0.0882
10 | GAAGGCTA | 0.0104
11 | CTATGAAC | -0.214
12 | AACACCAC | 0.0336
13 | GCTGAAAA | -0.078
14 | CGGATCCA | 0.36
15 | AGTAGTCA | -0.295
16 | AGAGGACT | -0.331
17 | AGGTTTAC | -0.0584
18 | CTCCCCTC | 0.0804
19 | CACGACAA | -0.244
20 | AAGTACAA | -0.00444
21 | ATCCGATA | 0.448
22 | GGGTATCA | 0.0389
23 | CTCTTTTC | -0.0359
24 | CTGAGAAA | -0.134
25 | CTCCCGGA | 0.329

Row | Sequence | PBM E-score
26 | AAGATGCG | -0.0438
27 | AACACGAA | 0.0454
28 | GACGTGTA | -0.0863
29 | CTGAATAC | -0.117
30 | TCATGCAA | -0.0599
31 | AAGTCGAT | -0.0507
32 | AAATCTCC | -0.0269
33 | CAGAAAAG | -0.108
34 | CAGATAGG | -0.191
35 | AGCGATAC | -0.116
36 | AACTGTTC | 0.0591
37 | ACGCGCAG | -0.305
38 | GAAATCGC | 0.0354
39 | CCCCCTAG | -0.264
40 | ACTCATCT | -0.224
41 | GATACCCC | 0.0107
42 | CTGGAGAA | -0.238
43 | CAATTCGG | 0.366
44 | AATCCAGC | -0.0895
45 | CCACACTA | 0.0411
46 | CCTATGTC | -0.102
47 | AGCCCCAA | -0.307
48 | CACATCGA | -0.223
49 | CAAAGTTG | -0.272
50 | AAGAACAT | 0.0606

Row | Sequence | PBM E-score
51 | GTCCGAGA | 0.378
52 | ATATTCGC | -0.034
53 | AAGGGGAT | -0.091
54 | AACTCACT | -0.214
55 | CGGCTAGC | 0.28
56 | TCCCCGCA | 0.205
57 | CATTGGCA | -0.138
58 | AGTCTTGG | -0.124
59 | GGCCAAAC | 0.0582
60 | AAGAGGCG | -0.131
61 | AAGCACTT | 0.00958
62 | AGAGCCAC | -0.148
63 | CTGTAGGA | -0.0819
64 | CGTGACCA | -0.155
65 | GCCTAGCC | -0.0218
66 | AGCTCATA | -0.0221
67 | AGGGAGCA | -0.166
68 | TTCGTAAA | -0.229
69 | AGCATTGA | -0.164
70 | ACACAACT | -0.21
71 | AATAGTCG | -0.0847
72 | GCGAGCCC | -0.0138
73 | CCTAGATA | -0.284
74 | CGGTAACA | 0.238
75 | GCCCGTGA | -0.0199

Row | Sequence | PBM E-score
76 | AAGGTATT | 0.0562
77 | CCCATGAC | -0.113
78 | CAATAGTC | -0.159
79 | ACCGGATA | 0.388
80 | AAAACGTT | -0.0148
81 | CCTCAAGC | -0.186
82 | GTGGACTA | -0.0353
83 | GGCAGGCA | 0.0342
84 | CAAATAAA | -0.0731
85 | GTGCGGGA | 0.218
86 | ACGCGCCT | -0.199
87 | AAGCGGTG | -0.196
88 | AGTGCGCG | -0.0739
89 | GTGATCAA | -0.212
90 | ATGTTACC | 0.224
91 | CTAATGAG | -0.094
92 | CCGCACGA | 0.086
93 | ATAGCACG | -0.208
94 | TAATCCGA | 0.39
95 | CTTAAAAG | -0.201
96 | CGAGATAG | 0.00411
97 | ACAAGGAG | -0.162
98 | ATTCGCAG | -0.152
99 | AAGTTAGA | -0.00247
100 | ACAAGATG | -0.25

Row | Sequence | PBM E-score
101 | AACGGCTG | 0.0915
102 | AAATTGGC | -0.0523
103 | CCATACAC | 0.133
104 | AAGCCACG | -0.0557
105 | AGCGCGAG | -0.212
106 | TCGAAGAA | -0.122
107 | ACAGAAAT | -0.0747
108 | ACCTGTAA | -0.252
109 | CCCAGTAA | -0.0957
110 | GCGTTAAC | -0.0445
111 | CTTTATGC | -0.0596
112 | TTGTAAAA | 0.0584
113 | ACATCGAG | -0.305
114 | ACTATCTG | -0.106
115 | AAGTGCAT | -0.21
116 | CCCTCCAA | -0.198
117 | AGGCTCAT | -0.121
118 | ACCAGAAA | -0.0713
119 | AAGCGCCT | -0.0362
120 | GAGGGCCC | -0.0131
121 | CACTTTGA | -0.101
122 | TAGGCATA | -0.215
123 | GCATTGGC | -0.273
124 | GCAATGTA | 0.0551
125 | ACCCCTGC | -0.0296

Row | Sequence | PBM E-score
126 | CGAATTTA | 0.103
127 | ATTGGATC | -0.0271
128 | CGGGAGGC | 0.197
129 | TGGTACAA | -0.239
130 | ACTAATCC | 0.11
131 | GCCTGCCC | 0.0407
132 | TATTATGA | -0.155
133 | CTGAGTTA | -0.159
134 | AACCGCGG | 0.291
135 | GCACGTCA | -0.127
136 | CCTACAAC | -0.0712
137 | ATCACGTA | -0.177
138 | GCCACACC | -0.088
139 | ATTTGTAG | -0.103
140 | AGCCAACA | -0.202
141 | ATCTCAGG | -0.0776
142 | AGAGCGAT | -0.253
143 | ACGCGTGC | -0.131
144 | AGGGTGGG | 0.0116
145 | ACCAAAGC | 0.00452
146 | ATGATTTG | -0.208
147 | CATGTTAG | -0.261
148 | AGCCGGCA | 0.316
149 | CTGGGCAC | -0.109
150 | CATACTAA | -0.184

Row | Sequence | PBM E-score
151 | CTATTCTC | -0.0228
152 | ACTGATAA | 0.00381
153 | ACTCCTCT | -0.061
154 | TAGAGATA | -0.0379
155 | CCGACGTC | 0.352
156 | CCATGGAG | -0.244
157 | CAAAGAAG | -0.128
158 | GACAGAAA | 0.0569
159 | AGCGGGTC | 0.0993
160 | GACAGCAC | 0.082
161 | AAATTGAA | -0.126
162 | AGGAGGGG | -0.0121
163 | AACTCGCA | -0.278
164 | GCACATTA | -0.171
165 | CTCACGAA | -0.183
166 | AAGAGAAC | -0.0683
167 | CCTAGCCA | -0.327
168 | ATATGGGA | -0.0207
169 | ATCTGTCC | 0.149
170 | CGGCTTAC | 0.178
171 | AAGGAAAT | -0.103
172 | CGCAGCAG | -0.15
